# Data from the supplement of paper PMC8728848.
# This is one part of the list.
# Legend:
# Test in all cases: glycan array binding signal (z-score within array); higher = stronger binding
# Settings in all cases: glycan notation: IUPAC condensed, linker removed
# [1] = biological target: GlcNAc(b1-4)GlcNAc(b1-4)GlcNAc(b1-4)GlcNAc(b1-4)GlcNAc(b1-4)GlcNAc
# In short: (§1)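 Columns mapping to the same glycan were averaged after glycan names were converted to IUPAC-condensed notation. The data come from 3228 arrays in the Consortium for Functional Glycomics database, limited to those with an available protein sequence. Binding is reported as a within-array Z-score averaged across arrays of one protein sequence and across linkers.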
# [2] = biological target: GlcNAc(b1-4)[GlcNAc(b1-6)]GalNAc
# In short: as §1
# [3] = biological target: GlcNAc(b1-6)Gal(b1-4)GlcNAc
# In short: as §1
# GlcNAc(b1-6)GalNAc = biological target: GlcNAc(b1-6)GalNAc
# In short: as §1
# [4] = biological target: GlcNAc6S(b1-3)Gal(b1-4)GlcNAc
# In short: as §1
# Kdn(a2-3)Gal(b1-3)GalNAc = biological target: Kdn(a2-3)Gal(b1-3)GalNAc
# In short: as §1
# Kdn(a2-3)Gal(b1-3)GlcNAc = biological target: Kdn(a2-3)Gal(b1-3)GlcNAc
# In short: as §1
# Kdn(a2-3)Gal(b1-4)Glc = biological target: Kdn(a2-3)Gal(b1-4)Glc
# In short: as §1
# Kdn(a2-3)Gal(b1-4)GlcNAc = biological target: Kdn(a2-3)Gal(b1-4)GlcNAc
# In short: as §1
# [5] = biological target: Kdn(a2-3)Gal(b1-4)[Fuc(a1-3)]GlcNAc
# In short: as §1
# Kdn(a2-6)Gal(b1-4)GlcNAc = biological target: Kdn(a2-6)Gal(b1-4)GlcNAc
# In short: as §1
# [6] = biological target: Man(a1-2)Man(a1-2)Man(a1-3)Man
# In short: as §1
# [7] = biological target: Man(a1-2)Man(a1-2)Man(a1-6)[Man(a1-3)]Man
# In short: as §1
# Man(a1-2)Man(a1-3)Man = biological target: Man(a1-2)Man(a1-3)Man
# In short: as §1
# [8] = biological target: Man(a1-2)Man(a1-3)[Man(a1-2)Man(a1-6)]Man
# In short: as §1
# [9] = biological target: Man(a1-2)Man(a1-3)[Man(a1-2)Man(a1-6)]Man(a1-6)[Man(a1-2)Man(a1-2)Man(a1-3)]Man
# In short: as §1
# [10] = biological target: Man(a1-2)Man(a1-3)[Man(a1-2)Man(a1-6)]Man(a1-6)[Man(a1-2)Man(a1-2)Man(a1-3)]Man(b1-4)GlcNAc(b1-4)GlcNAc
# In short: as §1
# [11] = biological target: Man(a1-2)Man(a1-3)[Man(a1-6)]Man(a1-6)[Man(a1-2)Man(a1-3)]Man(b1-4)GlcNAc(b1-4)GlcNAc
# In short: as §1
# [12] = biological target: Man(a1-2)Man(a1-6)[Man(a1-3)]Man(a1-6)[Man(a1-2)Man(a1-2)Man(a1-3)]Man
# In short: as §1
# [13] = biological target: Man(a1-2)Man(a1-6)[Man(a1-3)]Man(a1-6)[Man(a1-2)Man(a1-2)Man(a1-3)]Man(b1-4)GlcNAc(b1-4)GlcNAc
# In short: as §1
# Man(a1-3)[Man(a1-6)]Man = biological target: Man(a1-3)[Man(a1-6)]Man
# In short: as §1
# [14] = biological target: Man(a1-3)[Man(a1-6)]Man(a1-6)[Man(a1-2)Man(a1-3)]Man(b1-4)GlcNAc(b1-4)GlcNAc
# In short: as §1
# [15] = biological target: Man(a1-3)[Man(a1-6)]Man(a1-6)[Man(a1-3)]Man
# In short: as §1
# [16] = biological target: Man(a1-3)[Man(a1-6)]Man(a1-6)[Man(a1-3)]Man(b1-4)GlcNAc(b1-4)GlcNAc
# In short: as §1
# [17] = biological target: Man(a1-3)[Man(a1-6)]Man(b1-4)GlcNAc(b1-4)GlcNAc
# In short: as §1
# [18] = biological target: Man(a1-3)[Man(a1-6)]Man(b1-4)GlcNAc(b1-4)[Fuc(a1-6)]GlcNAc
# In short: as §1
# Man(a1-6)Man = biological target: Man(a1-6)Man
# In short: as §1
# Man(b1-4)GlcNAc = biological target: Man(b1-4)GlcNAc
# In short: as §1
# MurNAc(b1-4)GlcNAc = biological target: MurNAc(b1-4)GlcNAc
# In short: as §1
# Neu5Ac(a2-3)Gal = biological target: Neu5Ac(a2-3)Gal
# In short: as §1
# [19] = biological target: Neu5Ac(a2-3)Gal(b1-3)GalNAc
# In short: as §1
# [20] = biological target: Neu5Ac(a2-3)Gal(b1-3)GalNAc(b1-3)Gal(a1-4)Gal(b1-4)Glc
# In short: as §1
# [21] = biological target: Neu5Ac(a2-3)Gal(b1-3)GalNAc(b1-4)Gal(b1-4)Glc
# In short: as §1
# [22] = biological target: Neu5Ac(a2-3)Gal(b1-3)GalNAc(b1-4)[Neu5Ac(a2-3)]Gal(b1-4)Glc
# In short: as §1
# [23] = biological target: Neu5Ac(a2-3)Gal(b1-3)GalNAc(b1-4)[Neu5Ac(a2-8)Neu5Ac(a2-3)]Gal(b1-4)Glc
# In short: as §1
# [24] = biological target: Neu5Ac(a2-3)Gal(b1-3)GalNAc6S
# In short: as §1
# [25] = biological target: Neu5Ac(a2-3)Gal(b1-3)GlcNAc
# In short: as §1
binder,measurement,setting,value
SAOUHSC 00176 (Staphylococcus aureus) (protein) MSKILKCITLAVVMLLIVTACGPNRSKEDIDKALNKDNSKDKPNQLTMWVDGDKQMAFYKKITDQYTKKTGIKVKLVNIGQNDQLENISLDAPAGKGPDIFFLAHDNTGSAYLQGLAAEIKLSKDELKGFNKQALKAMNYDNKQLALPAIVETTALFYNKKLVKNAPQTLEEVEANAAKLTDSKKKQYGMLFDAKNFYFNYPFLFGNDDYIFKKNGSEYDIHQLGLNSKHVVKNAERLQKWYDKGYLPKAATHDVMIGLFKEGKVGQFVTGPWNINEYQETFGKDLGVTTLPTDGGKPMKPFLGVRGWYLSEYSKHKYWAKDLMLYITSKDTLQKYTDEMSEITGRVDVKSSNPNLKVFEKQARHAEPMPNIPEMRQVWEPMGNASIFISNGKNPKQALDEATNDITQNIKILHPSQNDKKGD,glycan array binding signal (z-score),[1],-0.028
same,glycan array binding signal (z-score),[2],-0.159
same,glycan array binding signal (z-score),[3],-0.124
same,glycan array binding signal (z-score),GlcNAc(b1-6)GalNAc,-0.128
same,glycan array binding signal (z-score),[4],-0.01
same,glycan array binding signal (z-score),Kdn(a2-3)Gal(b1-3)GalNAc,-0.129
same,glycan array binding signal (z-score),Kdn(a2-3)Gal(b1-3)GlcNAc,-0.106
same,glycan array binding signal (z-score),Kdn(a2-3)Gal(b1-4)Glc,0.079
same,glycan array binding signal (z-score),Kdn(a2-3)Gal(b1-4)GlcNAc,-0.143
same,glycan array binding signal (z-score),[5],-0.086
same,glycan array binding signal (z-score),Kdn(a2-6)Gal(b1-4)GlcNAc,-0.125
same,glycan array binding signal (z-score),[6],-0.163
same,glycan array binding signal (z-score),[7],-0.025
same,glycan array binding signal (z-score),Man(a1-2)Man(a1-3)Man,-0.027
same,glycan array binding signal (z-score),[8],-0.174
same,glycan array binding signal (z-score),[9],-0.112
same,glycan array binding signal (z-score),[10],-0.163
same,glycan array binding signal (z-score),[11],-0.172
same,glycan array binding signal (z-score),[12],-0.135
same,glycan array binding signal (z-score),[13],0.033
same,glycan array binding signal (z-score),Man(a1-3)[Man(a1-6)]Man,-0.063
same,glycan array binding signal (z-score),[14],-0.058
same,glycan array binding signal (z-score),[15],-0.002
same,glycan array binding signal (z-score),[16],-0.003
same,glycan array binding signal (z-score),[17],-0.123
same,glycan array binding signal (z-score),[18],-0.141
same,glycan array binding signal (z-score),Man(a1-6)Man,-0.086
same,glycan array binding signal (z-score),Man(b1-4)GlcNAc,0.094
same,glycan array binding signal (z-score),MurNAc(b1-4)GlcNAc,-0.1
same,glycan array binding signal (z-score),Neu5Ac(a2-3)Gal,-0.179
same,glycan array binding signal (z-score),[19],-0.087
same,glycan array binding signal (z-score),[20],-0.129
same,glycan array binding signal (z-score),[21],-0.122
same,glycan array binding signal (z-score),[22],0.032
same,glycan array binding signal (z-score),[23],-0.118
same,glycan array binding signal (z-score),[24],-0.132
same,glycan array binding signal (z-score),[25],-0.106
